The antibiotic and cytotoxicity screens of Wong et al. (2023)
The other results are listed elsewhere or left out.

Assays:
HSkMC = human skeletal muscle cells; assay: cytotoxicity call (relative viability < 0.9); conditions: 10 µM
HepG2 = assay: cytotoxicity call (relative viability < 0.9); conditions: 10 µM
S. aureus RN4220 = assay: growth inhibition call (relative growth <= 0.2); conditions: 50 µM

C[C@@H]1CCCCO[C@H](CN(C)C(=O)C2CCCCC2)[C@@H](C)CN([C@H](C)CO)C(=O)c2cc(NC(=O)Nc3cccc4ccccc34)ccc2O1
inactive: cytotoxicity call (HSkMC) | cytotoxicity call (HepG2) | growth inhibition call (S. aureus RN4220)

CN1CCN(C(=O)C[C@H]2CC[C@@H]3[C@H](COC[C@@H](O)CN3S(=O)(=O)c3cccc(F)c3)O2)CC1
inactive: cytotoxicity call (HSkMC) | cytotoxicity call (HepG2) | growth inhibition call (S. aureus RN4220)

COC[C@@H]1CN(C)C(=O)[C@H]2CCN(S(=O)(=O)N(C)C)CC[C@@H]12
inactive: cytotoxicity call (HSkMC) | cytotoxicity call (HepG2) | growth inhibition call (S. aureus RN4220)

C[C@H](CO)N1C[C@H](C)[C@H](CN(C)C(=O)C2CC2)Oc2ncc(-c3ccc(C(=O)N(C)C)cc3)cc2C1=O
inactive: cytotoxicity call (HSkMC) | cytotoxicity call (HepG2) | growth inhibition call (S. aureus RN4220)

Cc1ccc(S(=O)(=O)N(C)C[C@H]2OCCCC[C@H](C)Oc3ccc(NC(=O)c4ccccc4)cc3C(=O)N([C@H](C)CO)C[C@@H]2C)cc1
inactive: cytotoxicity call (HSkMC) | cytotoxicity call (HepG2) | growth inhibition call (S. aureus RN4220)

C[C@@H]1CCCCO[C@@H](CN(C)S(=O)(=O)c2cccs2)[C@@H](C)CN([C@H](C)CO)C(=O)c2cc(NC(=O)Nc3ccccc3)ccc2O1
inactive: cytotoxicity call (HSkMC) | cytotoxicity call (HepG2) | growth inhibition call (S. aureus RN4220)

CNS(=O)(=O)c1ccc2[nH]c(=O)[nH]c2c1
inactive: cytotoxicity call (HSkMC) | cytotoxicity call (HepG2) | growth inhibition call (S. aureus RN4220)

COCC(=O)N1C[C@@H](C)[C@@H](OC)CN(C)C(=O)c2cc(NC(=O)c3cc(C)on3)ccc2OC[C@H]1C
inactive: cytotoxicity call (HSkMC) | cytotoxicity call (HepG2) | growth inhibition call (S. aureus RN4220)

C[C@H]1CN([C@@H](C)CO)S(=O)(=O)c2ccc(C#Cc3ccc(F)cc3)cc2O[C@H]1CN(C)C(=O)c1ccccn1
inactive: cytotoxicity call (HSkMC) | cytotoxicity call (HepG2) | growth inhibition call (S. aureus RN4220)
